The supplement of paper PMC12458215

These sequences were tested on HEK293T (assay: plasma membrane surface immunostaining intensity (anti-HA, deep receptor scanning) (arbitrary fluorescence units); higher = higher plasma membrane expression). Conditions: GPCR class: A.

Sequence | plasma membrane surface immunostaining intensity
MSDERRLPGSAVGWLVCGGLSLLANAWGILSVGAKQKKWKPLEFLLCTLAATHMLNVAVPIATYSVVQLRRQRPDFEWNEGLCKVFVSTFYTLTLATCFSVTSLSYHRMWMVCWPVNYRLSNAKKQAVHTVMGIWMVSFILSALPAVGWHDTSERFYTHGCRFIVAEIGLGFGVCFLLLVGGSVAMGVICTAIALFQTLAVQVGRQADRRAFTVPTIVVEDAQGKRRSSIDGSEPAKTSLQTTGLVTTIVFIYDCLMGFPVLVVSFSSLRADASAPWMALCVLWCSVAQALLLPVFLWACDRYRADLKAVREKCMALMANDEESDDETSLEGGISPDLVLERSLDYGYGGDFVALDRMAKYEISALEGGLPQLYPLRPLQEDKMQYLQVPPTRRFSHDDADVWAAVPLPAFLPRWGSGEDLAALAHLVLPAGPERRRASLLAFAEDAPPSRARRRSAESLLSLRPSALDSGPRGARDSPPGSPRRRPGPGPRSASASLLPDAFALTAFECEPQALRRPPGPFPAAPAAPDGADPGEAPTPPSSAQRSPGPRPSAHSHAGSLRPGLSASWGEPGGLRAAGGGGSTSSFLSSPSESSGYATLHSDSLGSAS [GPR153] | 3830 ± 610
MSGMEKLQNASWIYQQKLEDPFQKHLNSTEEYLAFLCGPRRSHFFLPVSVVYVPIFVVGVIGNVLVCLVILQHQAMKTPTNYYLFSLAVSDLLVLLLGMPLEVYEMWRNYPFLFGPVGCYFKTALFETVCFASILSITTVSVERYVAILHPFRAKLQSTRRRALRILGIVWGFSVLFSLPNTSIHGIKFHYFPNGSLVPGSATCTVIKPMWIYNFIIQVTSFLFYLLPMTVISVLYYLMALRLKKDKSLEADEGNANIQRPCRKSVNKMLFVLVLVFAICWAPFHIDRLFFSFVEEWSESLAAVFNLVHVVSGVFFYLSSAVNPIIYNLLSRRFQAAFQNVISSFHKQWHSQHDPQLPPAQRNIFLTECHFVELTEDIGPQFPCQSSMHNSHLPAALSSEQMSRTNYQSFHFNKT [NMUR2] | 467 ± 39
MSKRSWWAGSRKPPREMLKLSGSDSSQSMNGLEVAPPGLITNFSLATAEQCGQETPLENMLFASFYLLDFILALVGNTLALWLFIRDHKSGTPANVFLMHLAVADLSCVLVLPTRLVYHFSGNHWPFGEIACRLTGFLFYLNMYASIYFLTCISADRFLAIVHPVKSLKLRRPLYAHLACAFLWVVVAVAMAPLLVSPQTVQTNHTVVCLQLYREKASHHALVSLAVAFTFPFITTVTCYLLIIRSLRQGLRVEKRLKTKAVRMIAIVLAIFLVCFVPYHVNRSVYVLHYRSHGASCATQRILALANRITSCLTSLNGALDPIMYFFVAEKFRHALCNLLCGKRLKGPPPSFEGKTNESSLSAKSEL [GPR17] | 293 ± 22
MSLNSSLSCRKELSNLTEEEGGEGGVIITQFIAIIVITIFVCLGNLVIVVTLYKKSYLLTLSNKFVFSLTLSNFLLSVLVLPFVVTSSIRREWIFGVVWCNFSALLYLLISSASMLTLGVIAIDRYYAVLYPMVYPMKITGNRAVMALVYIWLHSLIGCLPPLFGWSSVEFDEFKWMCVAAWHREPGYTAFWQIWCALFPFLVMLVCYGFIFRVARVKARKVHCGTVVIVEEDAQRTGRKNSSTSTSSSGSRRNAFQGVVYSANQCKALITILVVLGAFMVTWGPYMVVIASEALWGKSSVSPSLETWATWLSFASAVCHPLIYGLWNKTVRKELLGMCFGDRYYREPFVQRQRTSRLFSISNRITDLGLSPHLTALMAGGQPLGHSSSTGDTGFSCSQDSGTDMMLLEDYTSDDNPPSHCTCPPKRRSSVTFEDEVEQIKEAAKNSILHVKAEVHKSLDSYAASLAKAIEAEAKINLFGEEALPGVLVTARTVPGGGFGGRRGSRTLVSQRLQLQSIEEGDVLAAEQR [GPR161] | 4530 ± 950
MSLPNSSCLLEDKMCEGNKTTMASPQLMPLVVVLSTICLVTVGLNLLVLYAVRSERKLHTVGNLYIVSLSVADLIVGAVVMPMNILYLLMSKWSLGRPLCLFWLSMDYVASTASIFSVFILCIDRYRSVQQPLRYLKYRTKTRASATILGAWFLSFLWVIPILGWNHFMQQTSVRREDKCETDFYDVTWFKVMTAIINFYLPTLLMLWFYAKIYKAVRQHCQHRELINRSLPSFSEIKLRPENPKGDAKKPGKESPWEVLKRKPKDAGGGSVLKSPSQTPKEMKSPVVFSQEDDREVDKLYCFPLDIVHMQAAAEGSSRDYVAVNRSHGQLKTDEQGLNTHGASEISEDQMLGDSQSFSRTDSDTTTETAPGKGKLRSGSNTGLDYIKFTWKRLRSHSRQYVSGLHMNRERKAAKQLGFIMAAFILCWIPYFIFFMVIAFCKNCCNEHLHMFTIWLGYINSTLNPLIYPLCNENFKKTFKRILHIRS [HRH1] | 6190 ± 100
MSMNNSKQLVSPAAALLSNTTCQTENRLSVFFSVIFMTVGILSNSLAIAILMKAYQRFRQKSKASFLLLASGLVITDFFGHLINGAIAVFVYASDKEWIRFDQSNVLCSIFGICMVFSGLCPLLLGSVMAIERCIGVTKPIFHSTKITSKHVKMMLSGVCLFAVFIALLPILGHRDYKIQASRTWCFYNTEDIKDWEDRFYLLLFSFLGLLALGVSLLCNAITGITLLRVKFKSQQHRQGRSHHLEMVIQLLAIMCVSCICWSPFLVTMANIGINGNHSLETCETTLFALRMATWNQILDPWVYILLRKAVLKNLYKLASQCCGVHVISLHIWELSSIKNSLKVAAISESPVAEKSAST [PTGFR] | 942 ± 150
MSPLNQSAEGLPQEASNRSLNATETSEAWDPRTLQALKISLAVVLSVITLATVLSNAFVLTTILLTRKLHTPANYLIGSLATTDLLVSILVMPISIAYTITHTWNFGQILCDIWLSSDITCCTASILHLCVIALDRYWAITDALEYSKRRTAGHAATMIAIVWAISICISIPPLFWRQAKAQEEMSDCLVNTSQISYTIYSTCGAFYIPSVLLIILYGRIYRAARNRILNPPSLYGKRFTTAHLITGSAGSSLCSLNSSLHEGHSHSAGSPLFFNHVKIKLADSALERKRISAARERKATKILGIILGAFIICWLPFFVVSLVLPICRDSCWIHPALFDFFTWLGYLNSLINPIIYTVFNEEFRQAFQKIVPFRKAS [HTR1D] | 922 ± 86
MSQQNTSGDCLFDGVNELMKTLQFAVHIPTFVLGLLLNLLAIHGFSTFLKNRWPDYAATSIYMINLAVFDLLLVLSLPFKMVLSQVQSPFPSLCTLVECLYFVSMYGSVFTICFISMDRFLAIRYPLLVSHLRSPRKIFGICCTIWVLVWTGSIPIYSFHGKVEKYMCFHNMSDDTWSAKVFFPLEVFGFLLPMGIMGFCCSRSIHILLGRRDHTQDWVQQKACIYSIAASLAVFVVSFLPVHLGFFLQFLVRNSFIVECRAKQSISFFLQLSMCFSNVNCCLDVFCYYFVIKEFRMNIRAHRPSRVQLVLQDTTISRG [GPR55] | 6280 ± 65
MSVKPSWGPGPSEGVTAVPTSDLGEIHNWTELLDLFNHTLSECHVELSQSTKRVVLFALYLAMFVVGLVENLLVICVNWRGSGRAGLMNLYILNMAIADLGIVLSLPVWMLEVTLDYTWLWGSFSCRFTHYFYFVNMYSSIFFLVCLSVDRYVTLTSASPSWQRYQHRVRRAMCAGIWVLSAIIPLPEVVHIQLVEGPEPMCLFMAPFETYSTWALAVALSTTILGFLLPFPLITVFNVLTACRLRQPGQPKSRRHCLLLCAYVAVFVMCWLPYHVTLLLLTLHGTHISLHCHLVHLLYFFYDVIDCFSMLHCVINPILYNFLSPHFRGRLLNAVVHYLPKDQTKAGTCASSSSCSTQHSIIITKGDSQPAAAAPHPEPSLSFQAHHLLPNTSPISPTQPLTPS [GPR182] | 6320 ± 160
MTEVLWPAVPNGTDAAFLAGPGSSWGNSTVASTAAVSSSFKCALTKTGFQFYYLPAVYILVFIIGFLGNSVAIWMFVFHMKPWSGISVYMFNLALADFLYVLTLPALIFYYFNKTDWIFGDAMCKLQRFIFHVNLYGSILFLTCISAHRYSGVVYPLKSLGRLKKKNAICISVLVWLIVVVAISPILFYSGTGVRKNKTITCYDTTSDEYLRSYFIYSMCTTVAMFCVPLVLILGCYGLIVRALIYKDLDNSPLRRKSIYLVIIVLTVFAVSYIPFHVMKTMNLRARLDFQTPAMCAFNDRVYATYQVTRGLASLNSCVDPILYFLAGDTFRRRLSRATRKASRRSEANLQSKSEDMTLNILPEFKQNGDTSL [P2RY1] | 6180 ± 140

± gives the uncertainty stated by the source.
